Laboratory results reported in the BET-seq Pho4 binding data (Le et al. 2018).
The other results are listed elsewhere or left out. The energies were worked out here from pooled read counts, against the library average; single values are noisy.

These sequences were tested against T1, Pho4 (S. cerevisiae) (UniProt P07270) (assay: relative binding free energy (BET-seq); higher = weaker binding). Conditions: reference: library average.
T1 sequence: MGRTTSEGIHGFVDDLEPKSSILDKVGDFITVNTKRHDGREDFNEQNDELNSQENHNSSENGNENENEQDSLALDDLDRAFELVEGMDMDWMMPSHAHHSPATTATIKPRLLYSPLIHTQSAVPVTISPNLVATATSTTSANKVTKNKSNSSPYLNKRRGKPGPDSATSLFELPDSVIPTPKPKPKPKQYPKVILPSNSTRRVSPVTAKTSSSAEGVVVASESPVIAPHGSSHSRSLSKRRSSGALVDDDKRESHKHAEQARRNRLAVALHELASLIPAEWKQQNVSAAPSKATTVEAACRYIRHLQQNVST

Relative binding free energy, 0.05 kcal/mol:
CAGTGCACGTGTTTGG
CCGGGCACGTGAGTGT
TATTGCACGTGTGTTC
GGTAGCACGTGTGGGT
TGTTCCACGTGGGGCA
GTTTACACGTGTGAGA
GTTGGCACGTGTTAGT
ATGGTCACGTGCCGTG
ATTTCCACGTGGATGT

Relative binding free energy, -0.2 kcal/mol:
ATAAGCACGTGGGCTT
TAGAGCACGTGTGTGT

Relative binding free energy, -0.08 kcal/mol:
TAAGACACGTGCGTGT
TGGGGCACGTGGTAAG
GGCTACACGTGCGGGG
AGTTGCACGTGGCCGG

Relative binding free energy, 0.1 kcal/mol:
TTTTGCACGTGCATGG
ATATTCACGTGGGTGA
TGATCCACGTGTGTAT
GTAATCACGTGGTTAG
TGGAGCACGTGATCTT
CCTGGCACGTGAGGGG

Relative binding free energy, 0.12 kcal/mol:
AGTATCACGTGTGGGA
AGGTGCACGTGAAGCG
AACGTCACGTGCGGTG
ATGGGCACGTGAGTGT
ATAGTCACGTGCGGGC

Relative binding free energy, -0.07 kcal/mol:
CGAGGCACGTGTTGGG
TTTGGCACGTGTTCCA
TGTGACACGTGGTCAG

Relative binding free energy, -0.17 kcal/mol:
TTTACCACGTGGGGCG
AGTTACACGTGGGTGC
TGCCGCACGTGGGGCT

Relative binding free energy, 0.07 kcal/mol:
GGTAACACGTGGAAAG
TAAGTCACGTGGTGCT
TCTCTCACGTGGGTTG
TGTTACACGTGTGGGA
TGGGACACGTGGATGG
GTGGTCACGTGGGGTG

Relative binding free energy, 0.09 kcal/mol:
TCTATCACGTGTTATT
AAGTGCACGTGATGGT
GAGTCCACGTGGATGT
CGCTGCACGTGTGAGG
GGGTACACGTGTGTGT
GTTAGCACGTGTATGC
TTGGGCACGTGATTGG

Relative binding free energy, -0.06 kcal/mol:
AGTGCCACGTGTTTGC
ATGGGCACGTGCTGGT
TTATGCACGTGTTTTG
AGTGACACGTGCGATT

Relative binding free energy, 0.24 kcal/mol:
TGTCTCACGTGTAATG
TTGGTCACGTGGAGAT
ATGGTCACGTGAACGG
TTATTCACGTGTAGGG
AACTTCACGTGTATTT
GTTCTCACGTGAGTTT
TTCAGCACGTGAAGTT
TTCGTCACGTGATGGT

Relative binding free energy, -0.09 kcal/mol:
TAAGGCACGTGGAGAG
CGGTCCACGTGGTGGT
ATGGGCACGTGTTTAT
AATTGCACGTGCTTTT

Relative binding free energy, -0.1 kcal/mol:
GAGGGCACGTGGTGTA
TAGGGCACGTGGTGGG
GTTGCCACGTGGCTTG

Relative binding free energy, 0.33 kcal/mol:
ATGATCACGTGAAAGG
GGCTGCACGTGATCTG
ATTTTCACGTGCGGGC

Relative binding free energy, 0.02 kcal/mol:
TTAGACACGTGCGGTG
TGAGTCACGTGCGGGA
GTGGGCACGTGCACGT
GTTTCCACGTGGTATG
ATTAACACGTGGTAGC

Relative binding free energy, 0.19 kcal/mol:
ACATTCACGTGTAGGT
GTGGTCACGTGGACCG
TCAAGCACGTGATTTG
GTTGTCACGTGTTACG
TAGTTCACGTGGTCTA

Relative binding free energy, 0.3 kcal/mol:
TTTTTCACGTGGCGTC

Relative binding free energy, 0.06 kcal/mol:
GGTATCACGTGGTATC
GGGTACACGTGGTCGA
TGCGTCACGTGTGTAC

Relative binding free energy, 0.11 kcal/mol:
AAGGTCACGTGGTAGA
TGAAGCACGTGTGAGT
TGCATCACGTGTCGTG
ATCATCACGTGGGTGG
AGACACACGTGCGGGG
TGTTCCACGTGCATTT

Relative binding free energy, 0.39 kcal/mol:
GATTTCACGTGTTGAG

Relative binding free energy, 0.22 kcal/mol:
AGTTTCACGTGTTTAG
GAGTCCACGTGTTTGT
TTTTACACGTGTCAAT

Relative binding free energy, 0.03 kcal/mol:
AATAGCACGTGATGTT
TTTGACACGTGATGTA
TGGAGCACGTGATCGT
CGTTACACGTGGAGTG
CGGCGCACGTGTAGGT
GATTGCACGTGGGCTA
TTATGCACGTGTGCGC

Relative binding free energy, -0.16 kcal/mol:
CTGTACACGTGGGTAG
AGGGGCACGTGGGCTC
ATGGCCACGTGTCGGG
CGGTGCACGTGTTATA

Relative binding free energy, 0.28 kcal/mol:
GTGTTCACGTGTTGTG
CTTTGCACGTGTAGAT
GATGTCACGTGAAGGG
TGCTTCACGTGCAGGG

Relative binding free energy, 0.2 kcal/mol:
CGGTGCACGTGAAGGG
GGTTACACGTGCTGGG
GAAATCACGTGAGGTG

Relative binding free energy, 0.04 kcal/mol:
TGAAGCACGTGATGCG

Relative binding free energy, -0.13 kcal/mol:
TGGGGCACGTGACTAG
TGTAGCACGTGTTTCT
CGGTGCACGTGTGCGT
AGTGGCACGTGGACGT
CTGGGCACGTGCGTTT

Relative binding free energy, -0.28 kcal/mol:
TCGAGCACGTGGAGGT

Relative binding free energy, 0.37 kcal/mol:
CTCATCACGTGAGGGG
CGATTCACGTGTTTAG
GGTCTCACGTGTGCGG
TTAATCACGTGAGCGA

Relative binding free energy, 0.26 kcal/mol:
ACTATCACGTGGTGGA
GTTATCACGTGTGACG
ATGATCACGTGTCGGG
GGTTTCACGTGGGTGC
GTTGACACGTGAGGTT

Relative binding free energy, 0.29 kcal/mol:
GCGGTCACGTGAGTGT
GTGTGCACGTGAATTC
GGTGTCACGTGAGTTC

Relative binding free energy, -0.21 kcal/mol:
GGGGACACGTGGCTGT
AGGTGCACGTGCGGCT

Relative binding free energy, 0.13 kcal/mol:
CCTTGCACGTGTGAGT
GTAGTCACGTGCGATG
CTGGTCACGTGGTGAA
GTTGTCACGTGTAGGG

Relative binding free energy, 0.42 kcal/mol:
GGCTTCACGTGTTAGA
GGCTTCACGTGTGTCT

Relative binding free energy, 0.46 kcal/mol:
GGTCTCACGTGATGTA

Relative binding free energy, 0.21 kcal/mol:
TTATTCACGTGTAATT
TTTAACACGTGAATTA
CTAGTCACGTGTGATT

Relative binding free energy, -0.04 kcal/mol:
GTATGCACGTGGTGTG
AGGTTCACGTGGGTCA

Relative binding free energy, 0.32 kcal/mol:
GGGCTCACGTGTAATT

Relative binding free energy, 0.15 kcal/mol:
CTTGGCACGTGAACGT
GGTTTCACGTGGCAGT
ATATTCACGTGGGAGC

Relative binding free energy, 0.23 kcal/mol:
GGAATCACGTGAATTG
TGGAACACGTGTAAGG
TATATCACGTGACAGT
AAACTCACGTGTGTTG
TGGTGCACGTGAAGCA
GGTTGCACGTGAATAG

Relative binding free energy, 0.36 kcal/mol:
ATCATCACGTGAGTGG

Relative binding free energy, -0.14 kcal/mol:
TTAAGCACGTGGAGTA

Relative binding free energy, -0.03 kcal/mol:
GTCGGCACGTGTAGCG
CTTTGCACGTGCAGTG
CAGGGCACGTGGAGTC
ATGGCCACGTGTTAGA

Relative binding free energy, -0.12 kcal/mol:
TGGAGCACGTGCATTT
GATGGCACGTGGGGTT

Relative binding free energy, -0.02 kcal/mol:
TTTGACACGTGACGTG
CTGTGCACGTGGACGT
TATTACACGTGCGGTA
AGTGTCACGTGGCCGT

Relative binding free energy, -0.19 kcal/mol:
TGTCGCACGTGCAGGT
ATAAGCACGTGGTTCG
ATGGGCACGTGCGGCG

Relative binding free energy, -0.18 kcal/mol:
TTTGGCACGTGTACGT
ATCGGCACGTGCTGTG
GTAAGCACGTGGTTGA

Relative binding free energy, 0.34 kcal/mol:
GGTTACACGTGGATCG

Relative binding free energy, 0.16 kcal/mol:
AGGGTCACGTGACAGG
AGGTTCACGTGGTGAT

Relative binding free energy, -0.01 kcal/mol:
CGTTGCACGTGGCTGT
AATGTCACGTGGGTGA
TAGGGCACGTGAGTCA
AGAAGCACGTGTTGGT
TGCTACACGTGGTGTT

Relative binding free energy, -0.05 kcal/mol:
GTTTGCACGTGCAGTT
CGGTGCACGTGTAGTT
GAATGCACGTGGGGTA
TGTTCCACGTGTGCTT

Relative binding free energy, -0.29 kcal/mol:
TGGGGCACGTGCGCGG
AGTGCCACGTGGGATG
CGTGGCACGTGGTCTA

Relative binding free energy, 0 kcal/mol:
TTAATCACGTGGGGTG
TGATGCACGTGGTAAT
GTAAACACGTGGGTCT
GCTTGCACGTGGTGGG
TATCGCACGTGTAAGG
TTGGCCACGTGGTTTG
TTGGCCACGTGTGGTA

Relative binding free energy, -0.11 kcal/mol:
TTATGCACGTGCGTTG
TAGAACACGTGGGGTT

Relative binding free energy, 0.4 kcal/mol:
TATTTCACGTGTTAAA

Relative binding free energy, 0.18 kcal/mol:
GGAGACACGTGAGGAG
ATTATCACGTGAATGT
AGCTTCACGTGGGTGT
AGTGTCACGTGTACTT
AGGATCACGTGGTTAG

Relative binding free energy, 0.25 kcal/mol:
GGAATCACGTGTAGGT
TCTTTCACGTGCTGTT
CGTATCACGTGTCGAG
TGGCACACGTGAAGGT

Relative binding free energy, 0.41 kcal/mol:
TAGTTCACGTGACTGA
GTGAGCACGTGAAGTT

Relative binding free energy, 0.31 kcal/mol:
CAATTCACGTGGGTTC
TATGTCACGTGACATT
GCTGACACGTGATTGG

Relative binding free energy, 0.08 kcal/mol:
GGGGTCACGTGCGGTA
GGTCGCACGTGGATTG
TATAGCACGTGATTAT

Relative binding free energy, 0.35 kcal/mol:
TTTTGCACGTGAGGTT
AGATTCACGTGTGAAA

Relative binding free energy, 0.14 kcal/mol:
CTGCGCACGTGATGGA
TATTACACGTGATAAT
AATTACACGTGGTGGC
ATGGCCACGTGAAGTT
CATGTCACGTGGAGAT
TATATCACGTGCAGTT
TGGGTCACGTGTCACG
CGGGTCACGTGTTGGG
ATAGTCACGTGGATTA

Relative binding free energy, 0.01 kcal/mol:
ATAGTCACGTGTTGGT

Relative binding free energy, 0.27 kcal/mol:
AGGAGCACGTGAGGTT
GTGAGCACGTGAGAGC

Relative binding free energy, 0.17 kcal/mol:
TAGGTCACGTGTTGTG
GGTTTCACGTGTATCA
GATTTCACGTGCTATG
GCATTCACGTGGGTGA
